Where a chain is given by its changes, count along the chain named. Names may count otherwise.
B1: L69H (CM366) (designed binder)
Ubv: MHHHHHHGGSGYLIFVRMLTGKMIELEVEPSDTIENIKAKIQDHEGIPLDQQRLTFQGKLLEDGRTLSDYNLLIDPKKMHVLRMQ
B2: L69V (CM375) (designed binder)
Ubv: B1 Ubv with H80V
B3: L69I (CM367) (designed binder)
Ubv: B1 Ubv with H80I
B4: L69S (CM371) (designed binder)
Ubv: B1 Ubv with H80S
B5: L69G (CM365) (designed binder)
Ubv: B1 Ubv with H80G
B6: L69T (CM372) (designed binder)
Ubv: B1 Ubv with H80T
B7: L69A (CM358) (designed binder)
Ubv: B1 Ubv with H80A
B8: L69N (CM360) (designed binder)
Ubv: B1 Ubv with H80N
B9: L69D (CM361) (designed binder)
Ubv: B1 Ubv with H80D
B10: L69M (CM369) (designed binder)
Ubv: B1 Ubv with H80M
B11: L69R (CM359) (designed binder)
Ubv: B1 Ubv with H80R
B12: L69E (CM363) (designed binder)
Ubv: B1 Ubv with H80E
B13: L69K (CM368) (designed binder)
Ubv: B1 Ubv with H80K
B14: L69F (CM370) (designed binder)
Ubv: B1 Ubv with H80F
B15: L69W (CM 373) (designed binder)
Ubv: B1 Ubv with H80W
B16: L69C (CM362) (designed binder)
Ubv: B1 Ubv with H80C
B17: L69Q (CM364) (designed binder)
Ubv: B1 Ubv with H80Q
B18: CM 145 (designed binder)
Ubv: MHHHHHHGGSGMLIFVRMLTGKMIELEVMPSDTIEVVKAKIQDHEGIPPDQQHLTFQGTLLEDGYTLGDYNLLIDPKKMPLLRLR
B19: CM 148 (designed binder)
Ubv: B18 Ubv with P49L, Q51E, E62D, R85Q
B20: CM 146 (designed binder)
Ubv: B18 Ubv with P49L
B21: CM158 (designed binder)
Ubv: MLIFVRMLTGKMIELEVMPSDTIEVVKAKIQDHEGIPPDQQHLAFQGTSLEDGYTLGDYNLLIDPKKMPLLRLR

The binders below were run against MBP tagged 53BP1 fragment (a.a. 1484-1603) (assay: BLI, fold change Ka of Ubv/Ka of CM203).

Binding result, binds:
B1
B2
B3
B4
B5
B6
B7
B8
B9
B10
B11
B12
B13
B14
B15
B16
B17

Each binder was assayed against MBP tagged 53BP1 fragment (a.a. 1484-1603) (assay: BLI, fold change Ka of Ubv/Ka of CM1).

Binding result, binds:
B18
B19
B20
B21
